Measurements as given in the supplement of paper PMC3656093.
Several values for one entry are separate records, joined by “and”; a condition that tells them apart may be missing. Equal entries are not always repeated. ± gives the standard deviation of the averaged measurements. In all, about 1,900 compounds were measured (“CD40L-induced NF-kB luciferase activity, plate-corrected, relative to DMSO (0) and IKK inhibitor VII (-100) controls”: median about 0.032, lowest 2% from about -26 on). This is one part of the list.

The compounds below were run on BL2-NFkB-Luc (assay: CD40L-induced NF-kB luciferase activity, plate-corrected, relative to DMSO (0) and IKK inhibitor VII (-100) controls (% normalized activity); higher = more NF-kB reporter activity (less inhibition)). Conditions: 9.4 µM; stimulus: tCD40L 64 ng/ml; 4.5 h.
Protocol: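 BL2 B cells with a stable NF-kB response-element luciferase reporter (BL2-NFkB-Luc), 384-well. Cells were pre-incubated with compound at 9.4 uM for 1 h at 37 C, then stimulated with 64 ng/ml trimerized CD40L for 4.5 h; luciferase was read with Steady-Glo. Signal was normalised per plate in Genedata (median DMSO neutral control = 0, median IKK inhibitor VII at 50 uM = -100) with Assay Median plate-pattern correction; duplicate plates.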

Row | Compound | CD40L-induced NF-kB luciferase activity
1 | NCCc1cnc[nH]1 | -0.729 and -1.3
2 | CC/C(=C(\c1ccc(O)cc1)c1ccc(OCCN(C)C)cc1)c1ccccc1 | -3 ± 0.97
3 | NC(N)=NC(=O)Cc1c(Cl)cccc1Cl | -6.83 ± 6.3
4 | C[C@H](NC(=O)OC(C)(C)C)C(=O)NCC1CCC(C(=O)O)CC1 (stereo not given in full) | 2.59 ± 0.03
5 | CN(CCO)CC(O)Cn1cnc2c1c(=O)n(C)c(=O)n2C (stereo not given) | -3.01 ± 0.15
6 | NS(=O)(=O)c1cc2c(cc1Cl)NC(C(Cl)Cl)NS2(=O)=O (stereo not given) | 2.87 ± 3.3
7 | O=C(Cc1c[nH]c2ccccc12)OCCOC(=O)Cc1c[nH]c2ccccc12 | -3.25 ± 3.6
8 | CC(=O)N1N=C(c2cccs2)CC1c1ccc(C)o1 (stereo not given) | 0.129 ± 2.6
9 | Cc1cc(=O)oc(C)c1C(=O)NCCC(C)C | 4.9 ± 3
10 | O=C(CCCC(=O)OCC1CCCO1)OCC1CCCO1 (stereo not given) | -8.19 ± 8
11 | O=P(O)(O)CP(=O)(O)O | 6.79 ± 4.2
12 | Cn1c(=O)c2nc3ccccc3nc2n(C)c1=O | 12.48 ± 0.071
13 | CC(C(=O)O)c1ccc(-c2ccccc2)c(F)c1 (stereo not given) | 2.04 ± 0.53
14 | C=CCOc1ccc(C(=O)CC)cc1OC | -1.53 ± 1.7
15 | Cn1c(=O)[nH]c2nnc(-c3ccc(Cl)c(Cl)c3)nc2c1=O | 25.5 ± 4.7
16 | CSCCC(NC(=O)OC(C)(C)C)C(=O)Oc1ccc2c(=O)c(-c3ccc4c(c3)OCCO4)coc2c1 (stereo not given) | 11.9 ± 6.7
17 | CN(C)C(=O)C(CCN1CCC(O)(c2ccc(Cl)cc2)CC1)(c1ccccc1)c1ccccc1 | -4.63 ± 1.5
18 | COc1cc2c(cc1OC)C(c1cc(OC)c(OC)c(OC)c1)NCC2 (stereo not given) | -1.85 ± 0.47
19 | CCCCC[C@H](O)/C=C/C1=C(CCCCCCC(=O)O)C(=O)CC1 | -4.93 ± 1.7
20 | COc1cccc(-n2c(C)c3c(OC)cccc(=O)c3c2C)c1 | -4.99 ± 6.2

Row | Compound | CD40L-induced NF-kB luciferase activity
21 | Oc1c(Cl)cc(Cl)c(Cl)c1Cc1c(O)c(Cl)cc(Cl)c1Cl | -6.22 ± 3
22 | O=C(CCC(=O)NCCO)NCCO | 1.09 ± 0.48
23 | COc1ccc(C(=O)/C=C2/c3ccccc3CC(C)(C)N2C)cc1 | 4.49 ± 0.47
24 | CNc1nc(Nc2ccccc2)nc(OCC(F)(F)F)n1 | 2.12 ± 3.1
25 | COc1cccc(OC)c1C(=O)NCCSC1CCCCC1 | 0.829 ± 0.17
26 | Oc1ccc(/C=C/c2cc(O)cc(O)c2)cc1 | 44.38 ± 0.15
27 | CCc1nc2ccccc2c(NC(=O)CN2CC(C)CC(C)C2)c1C (stereo not given) | -3.42 ± 6.9
28 | CC(=O)N/C(=C/c1ccc2c(c1)OCO2)C(=O)NCCO | 2.15 ± 2.1
29 | COc1ccc(/C=C/C(=O)Nc2ccccc2C(=O)O)cc1OC | -57.1 ± 1.6
30 | COC(=O)c1cc(-c2ccc(OC)c(OC)c2)on1 | -0.743 ± 1.4
31 | COc1cc2c(cc1OC)/C(=C/c1ccc(Cl)cc1)C(=O)OC2 | -0.812 ± 2.7
32 | CC(=O)c1ccc(CCCCCCCCCC(=O)O)s1 | 4.89 ± 2.2
33 | C=C(C)Cn1c(NCCOC)nc2c1c(=O)[nH]c(=O)n2C | -1.58 ± 2.6
34 | Cc1cc(=O)[nH]c(=S)[nH]1 | 2.7 ± 1.2
35 | O=C(CCCCCCCC(=O)c1ccccc1)c1ccccc1 | 3.49 ± 0.72
36 | Cc1ccc(Nc2ncccc2C(=O)O)cc1C | 36.8 ± 2.2
37 | COc1ccccc1C(=O)Oc1ccc2c(c1)O/C(=C\c1ccncc1)C2=O | -3.17 ± 3.9
38 | CN(C)CCOC(C)(c1ccccc1)c1ccccn1 (stereo not given) | 1.25 ± 1.6
39 | Cc1oc2c(CN3CCCC3)c(O)ccc2c(=O)c1-c1ccc(Cl)cc1 | 8.32 ± 2.4
40 | CN(C(=O)C(Cl)Cl)c1ccc(OC(=O)c2ccco2)cc1 | 0.505 ± 2.8

Row | Compound | CD40L-induced NF-kB luciferase activity
41 | Cc1ccc(S(=O)(=O)NC(C(=O)Oc2ccc3c(C(F)(F)F)cc(=O)oc3c2)c2ccccc2)cc1 (stereo not given) | -3.22 ± 4.6
42 | COC(=O)c1cc(OC)c(OC)cc1NC(=O)CN1C(=O)c2ccccc2C1=O | 8.56 ± 6.7
43 | C[N+]1(C2CCC3CCCC2C3O)CCCCC1 (stereo not given) | -1.43 ± 5.8
44 | CC(C)[N+]1(C)[C@@H]2CC[C@H]1CC(OC(=O)C(CO)c1ccccc1)C2 (stereo not given in full) | -0.414 ± 0.2
45 | CNC[C@H](O)c1ccc(O)c(O)c1 | -11.2 ± 3.2
46 | CN1CCN(CCCN2c3ccccc3Sc3ccc(C(F)(F)F)cc32)CC1 | 1.23 ± 2.6
47 | Cc1ncc(C(=O)O)c(C(=O)O)c1N | -0.489 ± 5.9
48 | CC(C)CC(NC(=O)C1CCCN1C(=O)OC(C)(C)C)C(=O)NCC(N)=O (stereo not given) | -0.318 ± 0.65
49 | Cc1ccc(S(=O)(=O)n2ccnc2)cc1C | -16.2 ± 6.2
50 | COc1ccc(NC(=O)C2C(=O)N(CCO)C3(C)CC2c2ccccc2O3)cc1 (stereo not given) | 5.36 ± 7.6
51 | Cc1csc(-c2coc3cc(O)cc(C)c3c2=O)n1 | 62.8 ± 3.9
52 | CC(C)OC(=O)CC1C(=O)NCCN1C(=S)NC(=O)c1cccs1 (stereo not given) | -11.9 ± 12
53 | CC(NC(=O)c1cccnc1)C(=O)O (stereo not given) | -1.3 ± 1.4
54 | NC(N)=NC(N)=NCCc1ccccc1 | -4.45 ± 1.2
55 | O=C(NN=Cc1cc([N+](=O)[O-])ccc1N1CCOCC1)c1ccccn1 | -0.874 ± 1.6
56 | COc1ccc(OCc2cccc(C(=O)NN)c2)cc1 | -59.1 ± 2.2
57 | O=C(COc1ccc2ccc(=O)oc2c1)c1ccccc1 | 16.8 ± 3.2
58 | CCc1cccc2c1NC1(CCCC1)CC2C (stereo not given) | 1.37 ± 4.9
59 | O[C@H]1COC2C1OC[C@@H]2O (stereo not given in full) | 1.47 ± 0.99
60 | COc1ccc2c(c1)c(CC(=O)O)c(C)n2C(=O)c1ccc(Cl)cc1 | 1.16 ± 3.5
